In PubChem BioAssay AID1458 (National Center for Advancing Translational Sciences (NCATS), 2008):
In all, about 210,000 compounds went through this assay and about 5,900 (2.8%) were called active. The inconclusive results got no clear call from the source; some entries with a clear call stand among them for comparison. Calls come from the whole dose curve; as a rule, active = well fitted activation curve with a large enough effect; inconclusive = small, poorly fitted or top-dose-only effect; inactive = no such curve, though single readings can be large or run the other way. Potencies beside an inconclusive call are fits to weak or partial responses and may not hold up.
Potency is the fitted concentration of half-maximal effect; tags give direction and shape of the fitted curve.

Assay: qHTS Assay for Enhancers of SMN2 Splice Variant Expression; note: nearly all actives have a fitted effect of over 55% in size; for activity change, positive = activation: % of control where 0% means no effect
Details: HEK293 SMN2-luciferase splicing reporter, luminescence, 30-36 h; activity change, positive = activation: at 46.1 µM (top of the series)
Summary of the method: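 HEK293 cells carry an SMN2 minigene-luciferase reporter in which exon 7 inclusion puts luciferase in frame. Cells were seeded at 2000 cells/well, attached for 10-12 hours, then exposed to compounds for 30-36 hours at 37C before ONE-Glo luminescence.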
In the case of COC(=O)c1c(NC(=O)c2ccco2)sc(C)c1C, the Potency is reported as inconclusive: 10 µM [activator, partial curve].
With Cc1c(NC(=O)/C(C#N)=C/c2ccc(-c3ccc(Cl)c(Cl)c3)o2)c(=O)n(-c2ccccc2)n1C the Potency was “inactive”.
For O=[N+]([O-])c1ccccc1NCCNc1ncc(C(F)(F)F)cc1Cl, the Potency was inconclusive: 14.1 µM [activator, single point].
For CCN(c1ccccc1)S(=O)(=O)c1ccc(Cl)c(NC(=O)COC(=O)c2ccc(Cl)c(N)c2)c1, the Potency was inconclusive: 3.55 µM [activator, single point].
For COc1ccc2c(CC(=O)OCC(=O)Nc3cc(C)c(C)cc3[N+](=O)[O-])coc2c1, the Potency was inconclusive: 0.562 µM [activator, single point].
In the case of C=CCn1c(C)cc(C(=O)Cn2ncc(Cl)c(Cl)c2=O)c1C, the Potency is reported as inconclusive: 35.5 µM [activator, single point].
For CN[C@@H]1NC(=O)c2ccccc2N1Cc1ccc(F)cc1, the activity change, positive = activation was inactive: -5.69% [at 9.22 µM].
With c1ccc2c(c1)Cc1cc(CN3CCOCC3)ccc1-2 the Potency was active: 14.1 µM.
For O=C(Nc1cccc(Cl)c1)C1C2CCC3C(CCC21)C3(Cl)Cl (configuration not stated), the Potency was “inactive”.
In the case of O=C(c1cc2ccccc2oc1=O)N(c1ccc(Cl)cc1)C1C=CS(=O)(=O)C1 (configuration not stated), the Potency is reported as “inactive”.
For CCCCOC(=O)c1c(N)n(-c2ccc(OC)cc2OC)c2nc3ccccc3nc12, the Potency was “inactive”.
For COc1cc(/C=C(\C#N)C(N)=O)ccc1OS(=O)(=O)c1ccc(C)cc1, the Potency was inconclusive: 0.126 µM [activator, full curve, poor fit].
For Cc1ccc(Sc2c(C)nn(-c3ccccc3)c2OC(=O)C(C)(C)C)cc1, the Potency was “inactive”.
In the case of C[Si](C)(C)Cl, the Potency is reported as “inactive”.
For CCn1c(C(=O)NCc2ccc(F)cc2)cc2oc3ccccc3c21, the Potency was inconclusive: 35.5 µM [activator, single point].
With CCC(CC)c1nnc(NC(=O)c2ccc3ccccc3n2)s1 the Potency was active: 12.6 µM.
With COc1cccc(-c2nnc(SCC(=O)N3CCOCC3)o2)c1 the Potency was “inactive”.
With Oc1ccccc1CNc1ccc(Br)cn1 the Potency was inconclusive: 35.5 µM [activator, single point].
For Cc1cc(NC(=O)c2ccccc2F)ncc1NC(=O)c1cccs1, the Potency was inconclusive: 25.1 µM [activator, partial curve].
In the case of O=C(c1cc(-c2cccc(O)c2)on1)N1CCCCC1, the Potency is reported as inconclusive: 35.5 µM [activator, single point].
For O=C(NCc1ccncc1)c1cnccn1, the Potency was inconclusive: 5.62 µM [activator, partial curve, poor fit].
For COc1cccc(N(C(=O)c2cccs2)c2nc3ccccc3s2)c1, the Potency was inconclusive: 11.2 µM [activator, partial curve, poor fit].
With O=C(NCC1(c2ccccc2)CCOCC1)c1cccs1 the Potency was “inactive”.
With Cc1ccc(C)c2[nH]c(=O)c(CCNC(=O)CC(C)C)cc12 the Potency was inconclusive: 5.62 µM [activator, single point].
In the case of Cc1ccnc(NC(=O)c2sc3ccccc3c2Cl)c1, the Potency is reported as active: 3.16 µM.
In the case of Cc1nc(SCc2cccc(C(=O)O)c2)nc2c1CCCC2, the Potency is reported as active: 4.47 µM.
In the case of CCCC(=O)Nc1ccc(-c2nc3cc(C)c(C)cc3o2)cc1, the Potency is reported as active: 11.2 µM.
In the case of CCCSc1nsc(NC(=O)CCC)n1, the Potency is reported as active: 5.01 µM.
With Cc1ccc(NC(=O)c2cc(NC(=O)CCC(=O)O)ccc2N2CCCCC2)cc1 the Potency was inconclusive: 0.0089 µM [activator, full curve].
For Fc1cc(F)c2nc(N3CCCC3)sc2c1, the Potency was inconclusive: 35.5 µM [activator, single point].
In the case of CC1Cc2nc(SCC(=O)Nc3ccc4c(c3)OCO4)n(Cc3ccccc3)c(=O)c2S1 (configuration not stated), the Potency is reported as inconclusive: 15.8 µM [activator, single point].
With Cc1cc(C(=O)N/N=C/c2sccc2C)no1 the Potency was inconclusive: 10 µM [activator, partial curve, poor fit].
With CN(C)c1nc(N)nc(-c2cccnc2)n1 the Potency was inconclusive: 0.562 µM [activator, single point].
With O=C1CC(c2ccc(O)c(O)c2)Oc2cc(O)cc(O)c21 (configuration not stated) the Potency was “inactive”.
With CCCn1cnc2sc(CC)cc2c1=O the Potency was inconclusive: 35.5 µM [activator, single point].
With O=C(N/N=C/c1ccc2ccccc2c1)c1ccc(COc2ccc3c(c2)CCC3)o1 the Potency was inconclusive: 4.47 µM [activator, single point].
With Cc1ccccc1C(=O)NN1CCOCC1 the Potency was “inactive”.
With CC(C)Cn1c(NCCO)nc2ccccc21 the Potency was “inactive”.
In the case of Nc1ccc(-c2nnc(-c3ccc(-c4ccccc4)cc3)o2)cc1, the Potency is reported as inconclusive: 15.8 µM [activator, single point].
In the case of Cc1c(C(=O)N/N=C/c2ccc(Cl)cc2)[nH]c2ccc(Cl)cc12, the Potency is reported as inconclusive: 1 µM [activator, full curve, poor fit].
With Cc1cc2ncn(CC(=O)O)c2cc1C the activity change, positive = activation was inactive: -2.62% [at 9.22 µM].
With COc1ccc(NS(=O)(=O)c2cc(NC(=O)/C=C/c3cc(OC)c(OC)c(OC)c3)ccc2N2CCCCC2)cc1 the Potency was inconclusive: 7.94 µM [activator, partial curve, poor fit].
For CCCOc1ccc(-c2nnc(-c3ccncc3)o2)cc1, the Potency was inconclusive: 0.891 µM [activator, full curve].
With CC/C(=N\OC(=O)c1ccc(OC(C)C)cc1)c1ccc(C)cc1 the Potency was “inactive”.
For S=C(NCC1COc2ccccc2O1)Nc1ccc(Br)cc1 (configuration not stated), the Potency was inconclusive: 11.2 µM [activator, partial curve].
With COC(=O)C(Cc1ccc(OC(=O)c2ccccc2C)cc1)N1Cc2ccccc2C1=O (configuration not stated) the Potency was inconclusive: 14.1 µM [activator, single point].
In the case of CCNC(=O)COC(=O)c1cc(-c2ccc(OC)cc2)nc2ccccc12, the Potency is reported as “inactive”.
For OCC1CCCN(C(=S)Nc2ccc(Nc3ccccc3)cc2)C1 (configuration not stated), the Potency was inconclusive: 20 µM [activator, partial curve, poor fit].
In the case of COc1ccc(-c2nnc3c4ccccc4c(C)nn23)cc1, the Potency is reported as inconclusive: 17.8 µM [activator, single point].
In the case of CN(C1CCCCC1)S(=O)(=O)c1ccc2c(c1)c(=O)c(C(=O)N1CCN(c3ccccc3F)CC1)cn2C, the Potency is reported as inconclusive: 4.47 µM [activator, single point].
With Cc1ccc(OCCn2nnc3sc4c(c3c2=O)CCC(C)C4)cc1 (configuration not stated) the Potency was “inactive”.
In the case of Cc1nc2ccc([N+](=O)[O-])cc2s1, the Potency is reported as inconclusive: 4.47 µM [activator, full curve, poor fit].
In the case of Cc1c(NC(=S)N/N=C/c2ccc(O)cc2)c(=O)n(-c2ccccc2)n1C, the Potency is reported as “inactive”.
With Cc1ccc2[nH]c(C)c(/C=N/Nc3nc4ccccc4s3)c2c1 the Potency was “inactive”.
For COCC(=O)n1cc(C(=O)OC)c2ccccc21, the Potency was inconclusive: 10 µM [activator, partial curve, poor fit].
In the case of CC(C)COc1ccc(CSCCNC(=S)Nc2ccccc2)cc1, the Potency is reported as “inactive”.
In the case of Cn1c(CN2CCOCC2)nnc1SCC(=O)Nc1ccc2c(c1)OCCO2, the Potency is reported as active: 8.91 µM.
In the case of COc1ccc2occ(C(=O)c3cccs3)c2c1, the Potency is reported as “inactive”.
With Cc1ccc[n+](-c2nc3ccccc3nc2C(=C=[N-])C#N)c1 the Potency was inconclusive: 25.1 µM [activator, single point].
In the case of Cc1cccc(N2CCc3c2nc2ccc(Br)cc2c3N)c1, the Potency is reported as “inactive”.
In the case of Nc1nc(CSC(=S)N2CCOCC2)nc(Nc2ccc(F)cc2)n1, the Potency is reported as active: 14.1 µM.
In the case of CCCCC(=O)Nc1ccc2c(c1)nc1n2CCSC1, the Potency is reported as inconclusive: 10 µM [activator, partial curve].
In the case of CCCNC(=O)CSc1nc2[nH]ncc2c(=O)[nH]1, the Potency is reported as “inactive”.
In the case of CCCCC(=O)NC(=S)NNC(=O)c1ccc(OC)cc1, the Potency is reported as “inactive”.
In the case of CC(=O)Nc1ccc(-c2nnc(SCc3ccc(C)cc3)n2C)cc1, the Potency is reported as “inactive”.
In the case of Nc1c(-c2cccc([N+](=O)[O-])c2)nc2ccccn12, the Potency is reported as inconclusive: 22.4 µM [activator, single point].
For O=C(O)c1c(-c2ccc(Cl)cc2)cn2ccccc12, the Potency was inconclusive: 14.1 µM [activator, single point].
For COCCn1nnnc1C(c1ccccc1)N1CCN(c2ccccc2)CC1 (configuration not stated), the Potency was inconclusive: 1.26 µM [activator, partial curve].
In the case of COc1ccccc1Oc1ncnc2c1cnn2-c1ccccc1, the Potency is reported as active: 12.6 µM.
With COc1cc(CN2CCN(CCOCCO)CC2)cc(OC)c1OC the Potency was inconclusive: 35.5 µM [activator, single point].
For COc1cc(NC(=O)c2ccccc2)cc(OC)c1, the Potency was inconclusive: 35.5 µM [activator, single point].
With Cc1[nH]c2ccccc2c1C(=O)COC(=O)c1cccc(S(=O)(=O)N2CCCCC2)c1 the Potency was inconclusive: 0.891 µM [activator, full curve, poor fit].
In the case of COc1ccc(/C=N/NC(=S)Nc2ccccc2[N+](=O)[O-])cc1O, the Potency is reported as inconclusive: 35.5 µM [activator, single point].
In the case of COc1ccccc1C(=O)OCc1nc(N)nc(Nc2ccccc2C)n1, the Potency is reported as inconclusive: 20 µM [activator, single point].
In the case of COc1ccc(CCNCC(=O)Nc2ccccc2C(F)(F)F)cc1, the Potency is reported as “inactive”.
For CC(=O)Nc1ccc(C(=O)NCCCOC(C)C)cc1, the Potency was inconclusive: 14.1 µM [activator, single point].
In the case of Cc1cc(C(=O)COc2cccc3cccnc23)c(C)n1C, the Potency is reported as inconclusive: 15.8 µM [activator, single point].
